This is one part of the list.
target: T1, OsWOX13 (Oryza sativa, UniProt Q5QMM3 1-267); assay: protein-binding microarray (RPBM); PBS, 2% BSA, 51.3 ng/ul salmon testes DNA, 50 uM zinc acetate, 200 nM TF, 25 C, 1 h; high values mean tight binding; details: protein: recombinant; tags: N-terminal polyhistidine and DsRed monomer fusion (pET32a); label: CyDye5-dUTP incorporated in the synthesized complementary strand; 3' TTTTT single-stranded linker to array surface; dsDNA, one strand shown
T1 sequence: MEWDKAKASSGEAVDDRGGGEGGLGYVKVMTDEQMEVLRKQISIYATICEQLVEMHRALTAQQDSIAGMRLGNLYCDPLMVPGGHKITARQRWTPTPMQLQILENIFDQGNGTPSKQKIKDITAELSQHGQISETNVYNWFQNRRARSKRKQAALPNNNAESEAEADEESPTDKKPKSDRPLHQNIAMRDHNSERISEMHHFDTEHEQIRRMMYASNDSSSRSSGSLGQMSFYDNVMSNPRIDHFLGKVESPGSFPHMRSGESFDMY
In short: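 The binding signal for each feature is its fluorescence intensity in arbitrary units. An Axon 4000B scanner was used to read a custom Agilent array that had been made double-stranded with Cy5-dUTP primer extension, blocked with 2% BSA, incubated at 25 °C for 1 h with 200 nM protein in PBS, 2% BSA, salmon testes DNA and 50 µM zinc acetate, and washed. The protein was an N-terminal polyhistidine–DsRed transcription factor fusion from E. coli BL21-CodonPlus, purified on Ni–NTA.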

Sequence	binding signal
TATAATTATAGTATTTAGAAAATAAATTAAAAGCTAGATCCGGAGTCACCTAGTGCAG	17800 fluorescence intensity (a.u.)
AACGAGATTTGATGAAATTTACTCGACACAAAACAACTCTCGGAGTCACCTAGTGCAG	10500 fluorescence intensity (a.u.)
TGTTGATGAGTTATACAACTTTGTTGTTGATGACATTTTCCGGAGTCACCTAGTGCAG	6330 fluorescence intensity (a.u.)
ATTAACCAGCACTCAAATTATTCCTTTGTTTAGTTGTCTGCGGAGTCACCTAGTGCAG	3450 fluorescence intensity (a.u.)
TCCTCTCTTAATTAATTATTAGCTCGTGTTAATTGTTAAACGGAGTCACCTAGTGCAG	32800 fluorescence intensity (a.u.)
GAAATTGATAACATGATTTGTGAAAGGAAAATAAAGCGAACGGAGTCACCTAGTGCAG	47000 fluorescence intensity (a.u.)
GCTATAATTTATAATGTTTGGTTGCACGTTCTGTACATGGCGGAGTCACCTAGTGCAG	28900 fluorescence intensity (a.u.)
ATTCAAATTATTCAAATTTGAATACTTTTGTCTCAAAATTCGGAGTCACCTAGTGCAG	11000 fluorescence intensity (a.u.)
AATAAATAAATAAATAAATAATAAACTCGATCGGGTCGGGCGGAGTCACCTAGTGCAG	7460 fluorescence intensity (a.u.)
TGTATCTTGCGCACAATAAATTAACTGGGAATTTGCCTTCCGGAGTCACCTAGTGCAG	3480 fluorescence intensity (a.u.)
TATTTAATTTTACATATTTTCTTAATAATCGTCTCTAACTCGGAGTCACCTAGTGCAG	8140 fluorescence intensity (a.u.)
GTTGGATTAGCATATCTTGAGATTGACGAAGTTACCATGGCGGAGTCACCTAGTGCAG	16800 fluorescence intensity (a.u.)
TGCTTAATTTCCATTGATTCGAACTGTAGTTGCACGCGCGCGGAGTCACCTAGTGCAG	6300 fluorescence intensity (a.u.)
AACAAGATGGAACTGACAGCTAGATCCTATGTGCAGTTGACGGAGTCACCTAGTGCAG	3170 fluorescence intensity (a.u.)
TTAAATAAACAGAGTTACATATTATGATAGTTTGCTTAATCGGAGTCACCTAGTGCAG	14000 fluorescence intensity (a.u.)
GGATGAGTCATTGATTGGGCTAATCTATATCTATACTAATCGGAGTCACCTAGTGCAG	27400 fluorescence intensity (a.u.)
TTTTGAATAGGAAATCATTTATATGTGTTTCCTTAATTTGCGGAGTCACCTAGTGCAG	3290 fluorescence intensity (a.u.)
CAGTTAATTTACTTGTGACGTATCGCTGGGAAGTTAATTTCGGAGTCACCTAGTGCAG	12600 fluorescence intensity (a.u.)
AAACCCAATCCAATCAAGCGGAGCTCGAGCTCCAATCCAGCGGAGTCACCTAGTGCAG	3780 fluorescence intensity (a.u.)
TCATATTACTGTCTTAATTAATTCATCATGCTGCTGACAGCGGAGTCACCTAGTGCAG	18500 fluorescence intensity (a.u.)
AATATATGGATAATTGTACTAGATTATCCTATTTCATACACGGAGTCACCTAGTGCAG	6460 fluorescence intensity (a.u.)
ATAGACTAGATTAATAGTAAACCATCTCAATAGTATGTCTCGGAGTCACCTAGTGCAG	13600 fluorescence intensity (a.u.)
ACATGCATAATTATCTTTAATTATTTATGAACATATATAGCGGAGTCACCTAGTGCAG	37900 fluorescence intensity (a.u.)
TTGAATTTAAATTTAAACGTATAGTGCCTTCCCTTTTACGCGGAGTCACCTAGTGCAG	22900 fluorescence intensity (a.u.)
TCAAATTGAAAGTTTCCAAAATTTTCAAATCTGGACTTGACGGAGTCACCTAGTGCAG	24600 fluorescence intensity (a.u.)
TGCAGTGATAATTTAGGATTATTTAAGATTTGCACAGTGGCGGAGTCACCTAGTGCAG	12500 fluorescence intensity (a.u.)
GTCCAAAACGTCAATTATTATAGAACCGGAGGAGTATACGCGGAGTCACCTAGTGCAG	5860 fluorescence intensity (a.u.)

Sequence	binding signal
AATTAATTAGGCTCAAAAGATTCGCCTCGCGATTTCCAGACGGAGTCACCTAGTGCAG	22200 fluorescence intensity (a.u.)
AATCTAGTAAATTAGTTATAAAATGAAAGGGCGTTGCATTCGGAGTCACCTAGTGCAG	3380 fluorescence intensity (a.u.)
CAGCCGTTCAAATTAACATTTCAATTCAATGATTTTGCCCCGGAGTCACCTAGTGCAG	4190 fluorescence intensity (a.u.)
AGTATTTGATTAGGCACTACCTAATATTATAAATCTACATCGGAGTCACCTAGTGCAG	17400 fluorescence intensity (a.u.)
TTTGAAATTATTATTTATTTTATTGGTGACTTACTTTATTCGGAGTCACCTAGTGCAG	4390 fluorescence intensity (a.u.)
CGGCAGATAGATAGCAATTCCGTTAAGAATTTCTTGTTTGCGGAGTCACCTAGTGCAG	7940 fluorescence intensity (a.u.)
GTAATTAAACTAAATAAGTGCTATAAGTGTTGCTATATTACGGAGTCACCTAGTGCAG	4340 fluorescence intensity (a.u.)
TAATCTAAATTATTAAATCAGATTACTCTAAACTGGATTACGGAGTCACCTAGTGCAG	18300 fluorescence intensity (a.u.)
ACTTTGCCTAGATTCTAATTAATTTAAAGAATAAATTTGTCGGAGTCACCTAGTGCAG	6990 fluorescence intensity (a.u.)
TAGTTGATTAATAGGATTTGTATTGTAAGTGTGATACTGCCGGAGTCACCTAGTGCAG	42400 fluorescence intensity (a.u.)
AAAGTACAAATTAAATTAACAAGGATATCGATCAAAGTATCGGAGTCACCTAGTGCAG	5100 fluorescence intensity (a.u.)
AGCCTCAAGGTAGAATCTGATTGAAACGTCTTCACAAGACCGGAGTCACCTAGTGCAG	8980 fluorescence intensity (a.u.)
GGATTTGATATGATGATCAGCTTCGGTATTGTATAGATATCGGAGTCACCTAGTGCAG	4250 fluorescence intensity (a.u.)
CGAGCCCACTCCATCCCTTCCCCAGATCGCTCCTTCCCCTCGGAGTCACCTAGTGCAG	6240 fluorescence intensity (a.u.)
AATTTCAGTTATTTCCTAATTGTATTTCTATGGACTCTATCGGAGTCACCTAGTGCAG	5780 fluorescence intensity (a.u.)
CGTAATTAGGCTCAAAAGATTCGTCTCGCAATTTATATGCCGGAGTCACCTAGTGCAG	20100 fluorescence intensity (a.u.)
TATATGAACACACATTGATTATGTATTTGGACAACATGTACGGAGTCACCTAGTGCAG	3750 fluorescence intensity (a.u.)
CCAATGTCAATTATTCGAGAACGGAGGGAGTATTTGGACTCGGAGTCACCTAGTGCAG	5230 fluorescence intensity (a.u.)
GAACAAACAGGCTGCCAATAACTGGTCCTGCCCCACGGCCCGGAGTCACCTAGTGCAG	3460 fluorescence intensity (a.u.)
TGCATACTCTGATTGTACATTCATGTCCATACAGGGGAGTCGGAGTCACCTAGTGCAG	3170 fluorescence intensity (a.u.)
TTGACTTTTGATTATTCTTCTCGTTGCAAATATAAACTGCCGGAGTCACCTAGTGCAG	5970 fluorescence intensity (a.u.)
GAGTCCGATAGATTACCAGATTTGCCCTTTGTACTGCTTACGGAGTCACCTAGTGCAG	5030 fluorescence intensity (a.u.)
TTTCATTTAAATTATCAATTTAATTATAGAGATAAATTAACGGAGTCACCTAGTGCAG	20300 fluorescence intensity (a.u.)
TAAGGGTTAATTGGGCCGAAGAAAGGCGTCGGGTGTTAAGCGGAGTCACCTAGTGCAG	8950 fluorescence intensity (a.u.)
GGGAATTTGTGATTTGTAGTAGTATATATATTTAAATTTGCGGAGTCACCTAGTGCAG	24000 fluorescence intensity (a.u.)
TAATAACAAATTGGATATACAAGAACATAAAACTTGGTACCGGAGTCACCTAGTGCAG	8860 fluorescence intensity (a.u.)
AAGAAAGAGTGATTATCTCACCATTTGACTTACCAAGCCTCGGAGTCACCTAGTGCAG	3250 fluorescence intensity (a.u.)
